Sequences and labels used below:
T1: UNK ZnF1-3 (human, UniProt Q9C0B0 31-174)
T1 sequence: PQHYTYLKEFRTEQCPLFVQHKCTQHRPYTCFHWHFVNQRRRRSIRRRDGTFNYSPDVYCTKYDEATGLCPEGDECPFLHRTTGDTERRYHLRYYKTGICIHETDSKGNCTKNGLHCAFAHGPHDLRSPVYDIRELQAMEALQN

B1: chrX:131339419:131339420:-_ENSMUSG00000033436_ENSMUST00000035559|mus_hu|FALSE|FALSE (ssRNA)
RNA: GGGAGUUCUACAGUCCGACGAUCAUUCGAAAGGAUUUUCAAAAUCUCAACCUUGAUUUUUCCACCUCCCUGAGAUAGCAAACGGAAAAAGUUUGCAAUGGAAUUGACAAGCAGGUGCUGGUAGUCAUUAGUAAUAGUCAUGUUCAACAGAGGAUUGAGCAUCA
B2: 95574870_95578233_1546_CDS_ENSG00000087053_ENST00000352297|human|control|control (ssRNA)
RNA: GGGAGUUCUACAGUCCGACGAUCUCUUAGUUGAAAUCGAUGUCCAAAACUUAGCCAUUCUUUCUCCACAAGGACUUCAAAUCCUCGGAUGGUUCGAUAGUAUCCAUCCAACAUGAGCAUGGCAAGGGAAGUGAGCUGAGCUGUCAACAGAGGAUUGAGCAUCA
B3: chr12:39763582:39763583:-_ENSG00000139116_ENST00000544797|hu_mus|hu_hu_hu_mus_False|1_1 (ssRNA)
RNA: GGGAGUUCUACAGUCCGACGAUCCUCUAGGAACUGGGCAUUCACUUUGAAUUCAGGAGGGGGCAGCCCGUUUUUAAUCGCUGAGGUCUUUUUCUCAUCAAUACUCUUGAACAGGUGUCUAACAGCACGAGAGAUGAUACCCAGCAACAGAGGAUUGAGCAUCA
B4: chr1:115282363:115282364:-_ENSG00000009307_ENST00000339438|perfect_dup|FALSE|FALSE (ssRNA)
RNA: GGGAGUUCUACAGUCCGACGAUCAUCAUCUCCUACUUUUAAGUCUUGCAGGUUGCCAUUAUACUGUGAACAGUGGAAGAAAAGUCUAGCUUGACGUUCUGAACACUGAAUAAAUCCGUAAGAGGUUAACAGUUUUUCAAUAACCAACAGAGGAUUGAGCAUCA
B5: 131810538_131812914_573_CDS_ENSG00000152102_ENST00000409185|human|control|control (ssRNA)
RNA: GGGAGUUCUACAGUCCGACGAUCGACCGGGUGGGGGGCGACAGGAGUUGGGGAGUGAGCAGUCAGCAGGGUACCUGCUGACAUGGCCAUGGUGGUCCCAGCCACCAUGCCCAUGGUGACCCCGUUGCCUCUAGGAGGGGGGAUCAACAGAGGAUUGAGCAUCA
B6: chr11:93807532:93807533:+_ENSMUSG00000059474_ENSMUST00000107854|mus_mus|FALSE|FALSE (ssRNA)
RNA: GGGAGUUCUACAGUCCGACGAUCGUACACGUUGAACUGUGAAAGAGAACGGGCUACUGAGCUGUACGACGACAGGCAUUAUGGCUACGAUGGAAGCCUCCUCUGGUUAACGGUCUGUGUUAGCAGCAGGAGCGAGGGUCUUAACAACAGAGGAUUGAGCAUCA
B7: 247062812_247063484_1498_CDS_ENSG00000153207_ENST00000391829|human|control|control (ssRNA)
RNA: GGGAGUUCUACAGUCCGACGAUCAUCAAAAUUAUAAGUGCUUGGAUUAAAAAACUGCUCGGGAGGUGGAUAUGAAGGAGGGACUCCUCUAUUUAAACUUCUCUCAUGUACUAAUAUAUCCAAGAUGCCAUGUGGAGAAGUCCUCAACAGAGGAUUGAGCAUCA
B8: chr17:73774773:73774774:-_ENSG00000132475_ENST00000586270|hu_mus|FALSE|FALSE (ssRNA)
RNA: GGGAGUUCUACAGUCCGACGAUCUUUGGGCAUGAUGGUGACUCUCUUGGCGUGGAUGGCACACAGAUUGGUAUCUUCAAACAACCCCACCAGGUAUGCUUCGCUAGCCUCCUGAAGGGCACCGAUGGCUGCACUUUGAAACCUCAACAGAGGAUUGAGCAUCA
B9: 9605724_9608256_2938_CDS_ENSMUSG00000048264_ENSMUST00000174552|mouse|control|control (ssRNA)
RNA: GGGAGUUCUACAGUCCGACGAUCCGGCCUCUGCUCAGCCACAAUCACUAUCCUUUCAUCAUGAAGGACAGUCACUGAGAACACAGCUAUCCUGCCUCUGUAGACAAACUUCAUGGGCUCUACAGCUAAGGCUGUGGCCACAAUCAACAGAGGAUUGAGCAUCA
B10: chr4:48249827:48249828:-_ENSMUSG00000028343_ENSMUST00000030028|mus_hu|motif|central (ssRNA)
RNA: GGGAGUUCUACAGUCCGACGAUCCUCAAAAAUUGGAUGCAACAUCUGACUGAAACGACACCAGUCAGCAUAAAAAUUUACGGAAGCAACAUCAGCAUUGUUUAAAAUUUCAUCUAUAUUCUCUGUAUCAAGACUUGUUAUUUCCAACAGAGGAUUGAGCAUCA
B11: chr1:173059340:173059341:-_ENSMUSG00000058076_ENSMUST00000111336|mus_mus|FALSE|FALSE (ssRNA)
RNA: GGGAGUUCUACAGUCCGACGAUCGAGUCAAGCAUAAAAUGAGUAGUACUUUAAUCGUUUCCAAAGAAGAUGGUACAAGAAUUUAGAUUAGAAAAUAUGACAUUAAAGGUGUAUUUUCCUAGAAAUGAAAAACAGAACAGAAACCAACAGAGGAUUGAGCAUCA
B12: chr2:178407766:178407767:+_ENSG00000018510_ENST00000264167|hu_hu|FALSE|FALSE (ssRNA)
RNA: GGGAGUUCUACAGUCCGACGAUCAUUGACUGAUUCGAUGUGUAUCAGAGUACAGGUCCACCAUACAAUUAGUUAAAUAUACUAGAACAGAUUAUCCAAAACAACACUGUGGAAAGAAUUACCAGUGUUUCCACAUAUAACUGCCAACAGAGGAUUGAGCAUCA
B13: chr16:94664741:94664742:+_ENSMUSG00000040785_ENSMUST00000117648|mus_hu|mus_mus_mus_hu_False|38_48 (ssRNA)
RNA: GGGAGUUCUACAGUCCGACGAUCUGGUACUGAUCUUGGUAGCUGAUAUUCAGGAGAAAGGCUGGCCAAGGGUGUAUAUAUGCUGGUGAACUGCGACAGGCUAGGUAACACGUUUAUGUAUGCUGGCGGUGUCUGGGUGAUAUCCAACAGAGGAUUGAGCAUCA
B14: chr14:100422286:100422287:-_ENSMUSG00000072294_ENSMUST00000097079|mus_hu|motif|central (ssRNA)
RNA: GGGAGUUCUACAGUCCGACGAUCAGGGGACGUCCUGGCUUUGUUUAUUGACAAGUCCACUGGCUCAGUUUGUGUUUGGAAGUGAUCGGCAGAUAACGAGUCCUCCGGGGGCUCCCCUUUCACAUUAUUUAGCAACAGGGGAACCAACAGAGGAUUGAGCAUCA

The list shows a part of the results.

The target of the assay is T1, UNK ZnF1-3. Nature of the assay: nsRBNS (natural sequence RNA bind-n-seq); RBNS binding buffer (assumed for nsRBNS): 25 mM Tris pH 7.5, 150 mM KCl, 3 mM MgCl2, 0.01% Triton X-100, 500 ug/ml BSA, 20 U/ml SUPERase-In, 4 C; UNK is unkempt and MSI1 is Musashi-1; names of the RNAs are library labels; protein concentration not given here; high values mean tight binding.
The molecule B1 showed a binding signal of 1.08 enrichment R. Next, B2: 0.79 enrichment R; B3: 1.09 enrichment R; B4: 1.19 enrichment R. B5 showed a binding signal of 1.13 enrichment R.

With B6, the binding signal was 0.981 enrichment R. B7: the binding signal came out at 1.69 enrichment R.

Turning to B8, the binding signal was 1.05 enrichment R. As for B9, the figure is 0.781 enrichment R; as for B10, 3.08 enrichment R. As for B11, the figure is 1.68 enrichment R; as for B12, 1.12 enrichment R; as for B13, 1.06 enrichment R. Next, B14: 0.691 enrichment R.

Values taken from article PMC12136788.
